# Laboratory results reported in ChEMBL document CHEMBL4888484, “Replenishing the malaria drug discovery pipeline: Screening and hit evaluation of the MMV Hit Generation Library 1 (HGL1) against asexual blood stage Plasmodium falciparum ,using a nano luciferase reporter read-out” (2022).
# The campaign covered roughly 150,000 compounds. About 540 (0.36%) showed an effect of 50% or more. The list shows a part of the results.
# Tested on: Plasmodium falciparum
# Assay: Primary screen in NF54 nanoGlo assay, in single point, at 2uM, 72h; a lower Z score goes with more inhibition
# Assay type: functional, Erythrocyte
# Conditions: timepoint 72 hour
SMILES,% Inhibition,Z score
COc1cc(C(=O)NC2CCCCCCC2)ccc1OC1CCN(C(C)=O)CC1,14%,-1.65
Cc1ccc2[nH]c3c(c2c1)C[C@@H](NS(=O)(=O)Cc1cccc(F)c1)CC3,-6%,0.64
C[C@@]1(CCc2ccc3c(c2)OCO3)NC(=O)NC1=O,-7%,1.43
CCCN(Cc1nc(COc2cc(C)cc(C)c2)no1)C1CC1,5%,-0.62
O=C(Nc1cc(O)cc(F)c1)C1=CCCCO1,-13%,1.59
CCC(CC)C(=O)N(CCO)C1CCC1,-3%,0.4
COc1ccc(C[C@@H]2COc3ccccc3C2)cc1C(N)=O,-5%,0.96
CN(C)C(=O)[C@@H]1CC[C@](C)(C(=O)NCCCn2cncn2)C1(C)C,-18%,1.83
COc1ccc(C(=O)N[C@@H]2CCC[C@@H]2C(=O)NCc2ccc3c(c2)OCO3)cn1,6%,-0.8
O=C(O)[C@]1(C(=O)Nc2n[nH]c3c(Cl)cccc23)CC=CCC1,-5%,0.68
Cc1ccc(-n2ncc3c2CC(C)(C)C[C@@H]3NC2CCOCC2)cc1,-3%,0.31
N#Cc1cnc2ccc(F)cc2c1N1CCC(C(=O)Nc2cc(F)cc(F)c2)CC1,9%,-1.02
Cc1noc(C)c1CN1CC2(CCN(C(=O)c3ccccn3)CC2)CC1=O,-8%,1.5
COC[C@@H]1[C@H](C(=O)N2CCN(C3CCCCC3)CC2)CCCN1Cc1ccccc1,-15%,1.71
O=C(CCc1nc(-c2ccc(S(=O)(=O)N3CCCCC3)cc2)no1)N1CCCC1,0%,-0.04
O=C(NCc1nnc[nH]1)c1ccccc1-c1ccccc1,9%,-1.09
Cc1nc(-c2cccc(C(=O)N[C@@H](C)c3nncn3C)c2)nc2c1CCCC2,-10%,2.03
O=C(Nc1ccccn1)N[C@H](c1ccccc1)C1CCC1,-4%,0.58
COC[C@H]1C(=O)N(c2cccnc2)C(=O)N1C1CC1,-3%,0.35
Cn1cc(-c2ccnc(N3CCN([C@H]4CCCC[C@@H]4O)CC3)n2)cn1,-3%,0.46
O=C(O)c1occc1CN1CCC(Cc2cccc(F)c2F)CC1,-14%,2.41

SMILES,% Inhibition,Z score
CCNc1ncc(S(=O)(=O)NCCc2cnn(C)c2)cc1Cl,0%,-0.03
COc1ccc(CN(C)Cc2noc3c2COCC3)cn1,6%,-0.74
Cc1csc(NC(=O)[C@H](C)N2CCCC3(CCOCC3)C2)n1,3%,-0.59
Cc1cc(Cn2ccc(-c3cccc(-c4ncccc4Cl)c3)n2)no1,-6%,0.95
O=C(c1ccco1)N1CCN(C(=O)[C@H]2CCCN(c3cccc4c3C(=O)N(C3CCCCCCC3)C4=O)C2)CC1,-9%,1.2
Cc1cc(NC(=O)CNc2cccc3c2OC(C)(C)C[C@@H]3O)n(C)n1,-4%,0.6
CCn1cc(Nc2ncnc3scc(-c4ccc(Cl)cc4)c23)cn1,-13%,2.42
Cc1ccccc1[C@H]1CCN(CCNC(=O)c2cn(C3CCCCCC3)nn2)C1,0%,-0.07
C=C(C)CN(CC)c1nnnn1[C@@H]1COC2(CCC2)C1,0%,-0.02
COc1ccccc1-n1nc(CC(N)=O)nc1C1(Cn2ccnc2)CC1,-13%,1.63
COc1ccccc1NC(=O)Nc1ccccc1-c1cc2ccccc2[nH]1,0%,0.03
O=C(Nc1ccc(Cl)cc1F)c1ccc(N2CCCCC2)nn1,-10%,1.73
O=C(c1csc(-c2cccs2)n1)N1CCOC2CCCC21 (stereo not drawn),-2%,0.39
COc1ccc(OC)c2c1cc1n2C[C@@](C)(C(=O)NC2CCCC2)N(Cc2ccccn2)C1=O,4%,-0.6
CC(=O)N1CC(c2ccccc2)OC(c2ccc(F)cc2)C1 (stereo not drawn),-12%,1.13
O=C(Cc1ccsc1)N1CC(Nc2ccncn2)C1,13%,-1.48
O=C(N[C@H]1CC[C@@H]2CCC[C@@H]21)c1c[nH]c(=O)c(Cl)c1,42%,-7.22
COc1ccc(CN(CC(C)C)S(=O)(=O)c2cccc3cccnc23)cc1OS(=O)(=O)c1cccc(C(F)(F)F)c1,-3%,0.53
O=C1C[C@H](c2ccc(F)c(F)c2)c2c(n(C3CCCCCCC3)[nH]c2=O)N1,-8%,0.96
CCc1nnc2c(=O)n(CC(=O)Nc3ccc(OC)c(Cl)c3)c3ccccc3n12,9%,-1.02
CCn1nncc1C(=O)N1CCC(Cc2ccc(C(C)C)cc2)CC1,-8%,1.08

SMILES,% Inhibition,Z score
O=C(CC1CCN(C(=O)c2nnc(C(=O)Nc3ccc(Cl)cc3)s2)CC1)NC1CCCCCC1,-37%,3.3
CCN1C(=O)CN(C(=O)c2nccc3ccccc23)CC12CCOCC2,-4%,0.49
CN(C)S(=O)(=O)c1cnn(CCCF)c1,2%,-0.21
CN1CCCC(C)(C)[C@@H]1CNC(=O)c1ncnc2ccsc12,-10%,1.98
Cc1ccc(-c2ccnc3c(C(=O)N4CCOCC4)cnn23)cc1C,37%,-4.23
Cc1cccc(CNC(=O)c2[nH]c3cc(C)sc3c2CN2CCOCC2)c1,-3%,0.6
Cc1noc([C@H](C)NC(=O)N2CCC(c3ncon3)CC2)n1,-17%,2.51
COc1cnccc1-c1noc(C[C@H](O)COCc2ccccc2)n1,-14%,1.6
COc1cc(CNC2CCCC2)cc(Cl)c1OCc1ccc(Cl)cc1Cl,-6%,0.76
Cc1noc(C)c1Cc1nc([C@H]2CCOC2)no1,-11%,1.7
CC(C)c1cc(NS(=O)(=O)c2ccc3c(c2)OCCCO3)[nH]n1,38%,-5.46
O=C(NCC1CCCO1)N1CC2CC1CS2(=O)=O (stereo not drawn),-12%,1.36
CCC[C@H]1CN(Cc2csc(C)n2)C[C@@H]1NC(=O)C1CCOCC1,-7%,1.36
Cc1cccc(-n2nc(-c3nc(-c4ccc(C(F)(F)F)cc4)no3)c3ccccc3c2=O)c1,-6%,0.99
Cc1nc(Cc2nc(-c3nonc3C)cs2)cs1,35%,-3.93
O=C(Nc1cccc(S(=O)(=O)N2CCCCC2)c1)C1=NN(c2ccccc2)C(=O)CC1,1%,-0.09
Cc1cc(C)nc(CNC(=O)Cn2nnnc2CN2C[C@@H](C)O[C@@H](C)C2)n1,-15%,2.63
CC1CCCN(S(=O)(=O)N2CCCC2c2nnc3ccccn23)C1 (stereo not drawn),6%,-0.8
Cc1ncc(C(=O)N[C@H]2CC[C@H](O)CC2)c(O)c1Br,-5%,0.54
NC(=O)c1cn[nH]c1NCc1ccc2c(c1)CCCC2,0%,0.05
O[C@H]1C[C@@H](C(Nc2cnccn2)c2ccc(F)cc2F)C1 (stereo partly drawn),5%,-1.08

SMILES,% Inhibition,Z score
CC[C@H](C)[C@H](NC(=O)OCc1ccccc1)C(=O)Nc1ccc(NC(C)=O)cc1,-6%,0.72
O=C(C1CC1c1ccc(C(F)(F)F)cc1)N1CCN(C2CS(=O)(=O)CC2O)CC1 (stereo not drawn),-9%,1.32
Cc1nc(CC(=O)NCc2cccnc2)cs1,-8%,1.42
COc1ccc(CC(=O)NC[C@@H](c2ccc(C)o2)N2CCC(C)CC2)cc1,-4%,0.57
COc1c(NC(=O)CCO[C@@H](C)CC(C)C)c(C)nn1C,-4%,0.58
O=c1[nH]c(=O)n(Cc2nc(-c3ccco3)no2)cc1Cl,37%,-4.92
CC(C)n1cccc1-c1nc([C@H]2CCOC2)no1,-7%,0.93
CCn1cccc(NC(=O)N2CCOCC(F)(F)C2)c1=O,-12%,1.94
CC(C)(C)OC(=O)CCC(=O)NCc1cc(C#N)ccc1F,-10%,1.37
O=C(Cc1c[nH]c2ccccc12)Nc1ccc(N2CCOCC2)nc1,-5%,0.49
Clc1ccc(Cn2cc(CNCCCn3ccnc3)c3ccccc32)c(Cl)c1,98%,-10.9
Cc1n[nH]cc1CNC(=O)[C@@H](C)C(F)(F)F,-8%,0.91
CCc1nn(C)c(OC)c1CNC(=O)N[C@@H]1Cc2ccccc2[C@H]1O,-13%,1.27
Cc1cnc(NCc2nc3c(s2)CCC3)s1,-13%,1.51
O=C(NCc1ccccc1CN1CCOCC1)[C@@H]1CCCN1C(=O)c1cccs1,34%,-3.89
CC(=O)N[C@H](C(=O)Nc1ccc(C)cc1F)C(C)C,-9%,1.15
COCCC1(C(=O)O)CCN(c2cc(C(C)C)nc(C(F)(F)F)n2)CC1,4%,-0.66
CCCC[C@@]1(C(C)(C)C)NS(=O)(=O)c2ccccc21,-32%,3.74
Cn1nccc1Cn1cc(S(=O)(=O)N2CCCCC2)ccc1=O,-10%,1.06
CS(=O)(=O)N(CC(=O)N1CCCCCC1)C1CCCCC1,-3%,0.37
OC[C@H]1CCC2(CCOCC2)CN1Cc1nnnn1C1CC1,1%,-0.2
